Laboratory results published in publication PMC12040169 (PLOS Biology, 2025).
The list shows a part of the results.

The molecules below were run on T1, C. trachomatis L2/434/Bu expressing GFP (CTL2-GFP). Conditions: total inclusion area; 28.5 h, 10 µM; inhibitor.
T1 construct: L2/434/Bu GFP intracellular growth in HeLa cells
Parameters: species or system HeLa; C. trachomatis total inclusion area by high-content imaging, normalised to DMSO
Summary of the method: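 After bulk GFP and resorufin fluorescence reads, cells were fixed, stained with Hoechst and imaged by high-content microscopy. Inclusion area and number (GFP) stood in for chlamydial growth, nuclei count (Hoechst) for host cell viability. MICs were derived as for the bulk readout.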

SMILES	% of control remaining
Cc1ccc(S(=O)(=O)Nc2ccc(Nc3cc(-c4ccc(CNC(=O)OC(C)(C)C)cc4)ncn3)cc2)cc1 [CBK090967]	111.591
O=C(Nc1ccc(OC(F)(F)F)cc1)c1cnc(-c2ccc(Cl)cc2)c(-c2ccc(O)cc2)c1 [CBK037485]	120.772
NS(=O)(=O)c1ccc(NC(=O)C2CCCN(S(=O)(=O)c3ccc(Cl)cc3)C2)cc1 (centres unmarked) [CBK266813]	102.894
Cc1nccn1CCN(C)C(=O)c1ccc2c(c1)ncn2C [CBK281993]	94.5504
COCCOc1nccnc1N1CCNCC1 [CBK001903G]	64.0269
CC(Sc1nc(N)cc(N)n1)C(=O)c1ccc(F)c(F)c1 (centres unmarked) [CBK296928]	88.9635
Cc1csc2ncc(C(=O)Nc3ccc(OC(F)(F)F)cc3)c(=O)n12 [CBK287457]	102.718
O=C(c1ccc(F)cc1)C1CCN(Cc2ncc[nH]2)CC1 [CBK149135]	94.8781
Cc1cc(C(=O)NCCc2ccc(S(=O)(=O)NC(=O)NC3CCCCC3)cc2)n[nH]1 [CBK023997]	51.9061
Cc1cc(=O)c2ccccc2n1CC(=O)N1CCC2(CCOCC2)CC1 [CBK306869]	65.0577
CC(C)[C@@H](CO)n1c(=O)[nH]c2ncc(-c3cccc4cccnc34)nc21 [CBK064848]	119.872
CCOc1ccc(Cl)cc1CN(C)C(=O)NC(c1ncnn1C)C(C)C (centres unmarked) [CBK307110]	86.3447
CN(C)c1ncc(CNc2nc(O)c3c(n2)CCCC3)cn1 [CBK305460]	73.995
COc1ccc(CCCNC(=N)N)cc1Cl [CBK261404G]	77.7024
O=C(O)c1cc(-n2c(S)nnc2-c2cnccn2)ccc1Cl [CBK269285]	107.892
CCn1c(C)nnc1SCC(=O)Nc1cc(C(F)(F)F)ccc1Cl [CBK304382]	67.1691
O=C(NCC1(N2CCOCC2)CCCCC1)c1ccccc1C(=O)c1ccc(F)cc1 [CBK297938]	69.7528
CC1CN(Cc2c(C(F)(F)F)[nH]c3ncccc23)CC(C)O1 (centres unmarked) [CBK285344]	77.2177
CCOc1ccccc1NC(=O)NC(=O)C1CCN(CCCc2ccc3c(c2)OCO3)CC1 [CBK034924]	103.1
COc1ccc(C(=O)c2c[nH]c3ccccc23)cc1 [CBK111451]	125.415
Nc1cccc2c1C(=O)N(c1ccccc1C(=O)O)C2=O [CBK287220]	99.4346
CCN(CCO)c1ccc(Nc2cc(-c3ccsc3)ncn2)cc1 [CBK091000]	69.2329
O=c1n(Cc2ccccc2F)nc2nnc(-c3ccccc3)c(-c3ccccc3)n12 [CBK286179]	108.864
CCOC(=O)C1(C2CCCCC2)CCN(C(=O)CC2NC(=O)NC2=O)CC1 (centres unmarked) [CBK136938]	95.8536
O=C(O)CCCSCC(=O)Nc1ccccc1 [CBK276905]	106.353
O=[N+]([O-])c1ccc(CN2CCN(c3nccnc3OCCN3CCOCC3)CC2)cc1 [CBK082892T]	94.6401
O=C(CSc1nnc(SCc2cccc3ccccc23)s1)c1ccc(F)cc1 [CBK266218]	92.1262

SMILES	% of control remaining
Cn1c2ccccc2c2cc(/C=C(/NC(=O)c3ccccc3)C(=O)Nc3cccc(O)c3)ccc21 [CBK261449]	65.6038
CN(C)CCN1C(=O)C(O)=C(C(=O)c2ccc(S(=O)(=O)N3CCOCC3)cc2)C1c1ccc(F)cc1 (centres unmarked) [CBK264683]	113.56
CCN1CCN(C(=O)CN(Cc2ccc(Cl)cc2)S(C)(=O)=O)CC1 [CBK269263]	101.373
Brc1ccc(-c2nc(NCCCN3CCOCC3)cc(-c3ccccc3)n2)cc1 [CBK261712]	80.0262
Cc1ccc(-n2cnnn2)c(S(=O)(=O)N2CCOCC2)c1 [CBK268297]	100.777
CC1CCN(c2ccc(C(=O)CCCO)cc2)CC1 [CBK010358]	112.658
O=C(O)CSc1nnc(-c2ccco2)n1-c1ccccc1 [CBK131685]	85.0182
CCNC(=O)Nc1cc2cccnc2nc1-c1cc(F)cc(F)c1 [CBK070638]	77.6213
O=C(NCCCc1ccccc1Cl)c1ccc(=O)n(CC(=O)N2CCCCC2)c1 [CBK286078]	113.786
Nc1ncc(-c2cc3ccccc3o2)nc1-c1ccc(C=O)cc1 [CBK064126]	123.147
CC(=O)Nc1ccc(S(=O)(=O)N2CCN(S(=O)(=O)c3ccccc3[N+](=O)[O-])CC2)cc1 [CBK264314]	103.828
O=[N+]([O-])c1cccc(NS(=O)(=O)c2ccc(Cl)c(Cl)c2)c1 [CBK044396]	90.2776
CCn1c(SCC(=O)Nc2ccc(C(C)=O)cc2)nnc1-c1cc(Br)ccc1O [CBK268515]	132.136
COc1cc(CNCc2cccs2)cc(Cl)c1OCC(N)=O [CBK270237C]	116.133
CC(C)(C)C(=O)CN1CCC2(CC1)OCCc1c2[nH]c2ccc(F)cc12 [CBK040237]	96.3276
NC(=O)CN1CCC2(CC1)CN(CC(N)=O)c1ccccc12 [CBK126789]	78.7433
NC(=O)CCN1CCC(Cc2ccccc2)CC1 [CBK138317]	119.894
Cc1cc2c(cc1C)C(O)CC1(CCN(C(=O)c3ccco3)CC1)O2 (centres unmarked) [CBK282839]	127.97
CNC(=O)c1cccc(NS(=O)(=O)c2sc3ccc(Cl)cc3c2C)c1 [CBK160383]	93.9987
Cn1c2ccccc2n2c(SCc3nc4ccc([N+](=O)[O-])cc4[nH]3)nnc12 [CBK266853]	98.5943
N#Cc1ccc(C2NC(=O)c3ccccc3O2)cc1 (centres unmarked) [CBK288180]	94.7682
CCNC(=S)/N=C(\NCc1cccnc1)Nc1nc(C)cc(C)n1 [CBK267212]	80.0321
Cc1csc2c(C3CCCN(C(=O)c4ccccn4)C3)nc(C)n12 (centres unmarked) [CBK284594]	116.321
Cc1sc2nc(NCCO)[nH]c(=O)c2c1C [CBK018257]	89.4862
CCNc1cc2ccccc2c(-c2ccc(OC)c(C)c2)n1 [CBK089644]	95.8398
CCC1(CC)C(=O)N=C(C(C)(C)C)NC1=O [CBK076759]	93.5681
C[C@@H](Cn1nnc2ccccc21)NC(=O)Cc1cccc(F)c1 [CBK282306]	97.44

SMILES	% of control remaining
CC(C)(C)c1ccccc1NC(=O)N(CCCN)Cc1cc(F)cc(F)c1 [CBK034697C]	43.7462
O=C(O)c1ccccc1-c1ccccc1C(=O)NCCCO [CBK267197]	116.579
O=C(Cn1c(NCCCO)nc2ccccc21)c1cccs1 [CBK023894B]	80.8113
CC(CN1CCCCC1)OC(=O)COc1ccc(Br)cc1 (centres unmarked) [CBK265326C]	100.954
COc1ccc(-n2c(=O)c3ccccc3n(CC(=O)NC3CCCC3)c2=O)cc1 [CBK287574]	109.304
Nc1cc(N)nc(SCC(=O)Nc2ccc(Oc3ccccc3)cc2)n1 [CBK266749]	90.4088
O=C(c1cccs1)N1CC(n2nc(-c3cccs3)ccc2=O)C1 [CBK283347]	97.4784
COc1cc(/C=N/Nc2nc(-c3ccccc3)cc(-c3ccc(OC)c(OC)c3)n2)ccc1O [CBK262841]	32.6828
CCOC(=O)CNS(=O)(=O)c1cccs1 [CBK044958]	121.384
O=[N+]([O-])c1ccccc1OCCNCc1ccccc1 [CBK265511G]	89.4615
CCOC(=O)N1CCC(NC(=O)N2CCN(CCc3ccccc3)CC2)CC1 [CBK158938]	112.772
C[C@H](Nc1cncc(-c2cccc(N(C)C)c2)n1)c1ccccc1 [CBK065699]	59.7089
c1ccc(-c2c(-c3ccccc3)n(Cc3ccco3)c3ncn4nc(-c5ccncc5)nc4c23)cc1 [CBK265298]	119.135
O=C(O)c1[nH]c2ccccc2c1C(c1ccsc1)c1c(C(=O)O)[nH]c2ccccc12 [CBK267811]	16.8855
O=C(O)c1ccc(Nc2nc3ccccc3nc2NS(=O)(=O)c2ccc(Cl)cc2)cc1 [CBK296072]	103.322
O=C(CSc1nc(-c2ccccc2)cc(-c2ccccc2)n1)Nc1cccc([N+](=O)[O-])c1 [CBK263896]	98.9181
CCc1nn(CC(=O)NC(C)(C)C)c(=O)c2cc3ccsc3n12 [CBK284183]	66.8095
CCNC(=O)Nc1ncc(-c2ccsc2)c2cccnc12 [CBK070686]	62.5554
CCC(c1c(O)c2ccccc2oc1=O)c1cccc2ccccc12 (centres unmarked) [CBK016684]	75.581
COc1ccc([C@@]23CC[C@@H](NC(=O)Nc4cc(C)c(C)cc4[N+](=O)[O-])C[C@@H]2N(C)CC3)cc1OC [CBK036478T]	97.4419
Cc1ccc(C(=O)N2CCN(Cc3ccccc3)CC2)cn1 [CBK200170]	91.0543
CNC1CCCCCC1(O)c1ccccc1 (centres unmarked) [CBK005073]	93.0831
O=C(Cc1cccs1)N1CCC(c2nnc3n2CCCCC3)CC1 [CBK284606]	92.9883
Cc1nc(CN2CCC(Cc3ccccc3)CC2)cs1 [CBK126438]	48.0597
CCOC(=O)N1CCN(C(=O)COc2cccc3ccccc23)CC1 [CBK262992]	95.1424
O=C(O)c1ccc(CSc2nnc(Cc3ccccc3)[nH]2)o1 [CBK269208]	87.7939
